This note sets out measurements from PubChem BioAssay AID1745853 (National Center for Advancing Translational Sciences (NCATS), 2022).

The list shows a part of the results. These are further read-outs of the screen, such as a control signal, another cell line or another target. No call is given for them.

What all share (experiment): Primary Screen for Target Class Profiling of Small Molecule Inhibitors of Methyltransferases
Assay [1] has as its target Glycine N-methyltransferase (Homo sapiens) (UniProt Q14749). Conditions: purified enzyme, MTase-Glo SAH luminescence; measured here: GNMT inhibition; at 40 µM; stronger effect = lower value. The method in brief:
(§1)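 Each enzyme was assayed with SAM and its substrate. SAH formation detected by MTase-Glo luminescence; single-point 40 uM screen[…].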

Assay [2] addresses Guanidinoacetate N-methyltransferase (Homo sapiens) (UniProt Q14353). Conditions: purified enzyme, MTase-Glo SAH luminescence; measured here: GAMT inhibition; at 40 µM; stronger effect = lower value. The method, boiled down:
as §1

Assay [3] deals with Histamine N-methyltransferase (Homo sapiens) (UniProt P50135). Conditions: purified enzyme, MTase-Glo SAH luminescence; measured here: HNMT inhibition; at 40 µM; stronger effect = lower value. The method in brief:
as §1

Assay [4] addresses Nicotinamide N-methyltransferase (Homo sapiens) (UniProt P40261). Conditions: purified enzyme, MTase-Glo SAH luminescence; measured here: NNMT inhibition; at 40 µM; stronger effect = lower value. The method in brief:
as §1

In assay [5] the target is Phenylethanolamine N-methyltransferase (Homo sapiens) (UniProt P11086). Conditions: purified enzyme, MTase-Glo SAH luminescence; measured here: PNMT inhibition; at 40 µM; stronger effect = lower value. The method in brief: as §1
% is scaled to controls: 0 for no effect and ±100 for the full control effect.

On to `COc1cccc(CN2C(=O)c3cc(C4CC4)nn3CC2(C)C(=O)NC2CCCCCC2)c1` (stereo not given), for which the activity change, negative = inhibition is 2.02% in assay [1]; 0% in assay [2]; 9.62% in assay [3]; -12.8% in assay [4]; 2.42% in assay [5].
Consider `CCCn1c(=O)c2ccc(C(=O)NCC(C)C)cc2n2c(SCC(=O)NC(C)(C)C)nnc12`, for which the activity change, negative = inhibition in assay [1] is 8.15%; in assay [2], 1.2%; in assay [3] it was 6.89%; in assay [4], 6.54%; in assay [5] it was 9.59%.
The like results for `Cc1cc2c(cc1S(=O)(=O)Nc1ccccc1)n(C)c(=O)n2C` were, in that order, 8.37%, 0%, 6%, -3.5% and 2%.
As to `Cc1ccc2nc(N)[nH]c(=O)c2c1Sc1ccncc1`, the activity change, negative = inhibition in assay [1] is -18.1%; in assay [2], -3.76%; in assay [3], -50.7%; in assay [4], -19.6%; in assay [5] it was -3.04%.
`O=C(c1ccccc1)c1ccc2n1CCC2C(=O)O` (stereo not given): the activity change, negative = inhibition in assay [1] was -2.88%; in assay [2], 4.76%; in assay [3] it was -2.35%; in assay [4], -7.9%; in assay [5], 2.02%.
The like results for `CC(C)CCn1c(=O)c2ccc(C(=O)NC(C)C)cc2n2c(=O)n(Cc3ccccc3F)nc12` were, in that order, 1.2%, 4%, -0.103%, 0.618% and -0.283%.
Consider `Cn1ccnc1CN1CCOC[C@H](Oc2ccc(C(F)(F)F)cc2)C1`, for which the activity change, negative = inhibition in assay [1] was -7.59%; in assay [2], -5.72%; in assay [3], -5.09%; in assay [4], -12.8%; in assay [5] it was -6.83%.
As for `CC(C)NC(=O)c1ccc2c(=O)n(Cc3ccccc3)c3nnc(SCC(=O)NC(C)(C)C)n3c2c1`, the activity change, negative = inhibition in assay [1] is -1.29%; in assay [2], 3.28%; in assay [3] it was 0.564%; in assay [4], 2.35%; in assay [5], -0.928%.
The like results for `O=C([C@@H]1C[C@H](Oc2cccnc2)CN1S(=O)(=O)c1cccs1)N1CCCC1` were, in that order, -3.47%, -0.517%, -0.585%, -3.85% and -0.461%.
The like results for `C=CC(C)(C)c1[nH]c2ccccc2c1C[C@@H]1NC(=O)[C@H](C)NC1=O` were, in that order, -3.69%, -3.83%, 8.11%, -17.5% and -13.5%.
`CCn1c(=O)n(CC)c2cc(S(=O)(=O)Nc3ccccc3OC)ccc21`: the activity change, negative = inhibition is 15.9% in assay [1]; 2.92% in assay [2]; 11.2% in assay [3]; 2.2% in assay [4]; 8.69% in assay [5].
Turning to `CS(=O)(=O)c1ccc(N2CCN(CC3(O)CNCCOC3)CC2)c(F)c1` (stereo not given), the activity change, negative = inhibition was -1.88% in assay [1]; -0.868% in assay [2]; -0.275% in assay [3]; -5.88% in assay [4]; -6.79% in assay [5].
As to `Fc1cccc(-c2nnn3c2nc(NCC2CCCO2)c2cc(Cl)ccc23)c1` (stereo not given), the activity change, negative = inhibition in assay [1] is -3.15%; in assay [2], 4.46%; in assay [3], 3.3%; in assay [4], -1.82%; in assay [5], -5.69%.
In the same order, the values of `COC(=O)c1cccc(NC(=O)N2Cc3c(sc4c3CCCC4)-n3cccc3C2c2cc(F)cc(F)c2)c1` (stereo not given) are 2.42%, 0.846%, 3.78%, 1.3% and 6.23%.
The like results for `O=C(c1nnc(COc2ccc3c(c2)OCO3)n1Cc1ccccc1)N1CCC[C@@H]1c1ccc(Br)cc1` were, in that order, -3.01%, -0.476%, -2.96%, -10.6% and 9.27%.
In the same order, the values of `COc1ccc(N(C(=O)c2cccnc2)S(=O)(=O)c2ccc3c(c2)n(C)c(=O)n3C)cc1` are -5.05%, 0.164%, 9.36%, 12.8% and 3.23%.
On to `O=C(C1CCCC1)N1CCC(C(=O)N2CCC(c3nc4ccncc4[nH]3)C2)CC1` (stereo not given), for which the activity change, negative = inhibition in assay [1] is -7.42%; in assay [2], -6.38%; in assay [3] it was -7.57%; in assay [4], -11.8%; in assay [5] it was -15.6%.
In the same order, the values of `CN1C[C@@H](NC(=O)NC2CCCCC2)C[C@H]1c1nc(-c2cccnc2)no1` are -0.719%, -1.11%, 0.301%, 1.67% and 3.09%.
As for `CCOC(=O)c1cc2n(n1)CC(C)(C(=O)NCCC(C)C)N(Cc1ccc(F)cc1)C2=O` (stereo not given), the activity change, negative = inhibition in assay [1] was -4.85%; in assay [2], 5.04%; in assay [3] it was -2.96%; in assay [4], 3.98%; in assay [5] it was -3.33%.
The like results for `CN(C)S(=O)(=O)N1CCc2c(nc3cc(-c4ccccc4)[nH]n3c2=O)C1` were, in that order, -14.4%, -8.33%, -14.4%, -14.2% and -5.81%.
In the same order, the values of `COCCCN1C(=O)c2cc3ccccc3n2CC1(C)C(=O)NC1CCCCCC1` (stereo not given) are -1.73%, 3.86%, -0.465%, -5.49% and -1.37%.
On to `Cc1ccc(NC(=O)Cn2nc3n(C(C)C)c(=O)c4ccc(C(=O)NCC(C)C)cc4n3c2=O)c(C)c1`, for which the activity change, negative = inhibition came to 3.82% in assay [1]; 0.174% in assay [2]; 6.72% in assay [3]; 2.02% in assay [4]; 2.29% in assay [5].
The like results for `Cc1cc2c(cc3n2CC(C)(C(=O)NC2CCCCCC2)N(Cc2ccccc2C)C3=O)o1` (stereo not given) were, in that order, 3.74%, 0.489%, 7.51%, -1.65% and -0.813%.
Regarding `CC1=CC(=O)CC(C)(C)C1CCC(C)OC1OC(COC(=O)c2cc(O)c(O)c(O)c2)C(O)C(O)C1O` (stereo not given), the activity change, negative = inhibition in assay [1] is 0%; in assay [2], 5.05%; in assay [3], 8.7%; in assay [4] it was -8.01%; in assay [5], 2.02%.
With `CCc1nc2c(=O)n(CC(=O)NCCC3=CCCCC3)nc(C)c2s1`, the activity change, negative = inhibition in assay [1] was -3.47%; in assay [2] it was 0.468%; in assay [3], -0.32%; in assay [4], -7.25%; in assay [5] it was -4.53%.
For the compound `CCCCOC(=O)COc1ccc2c(-c3ccccc3)cc(=O)oc2c1C`, the activity change, negative = inhibition in assay [1] is -3.51%; in assay [2], 0%; in assay [3], 7.54%; in assay [4], -1.16%; in assay [5] it was -3.35%.
In the same order, the values of `CCN(CC)C(=O)[C@@H]1CCCN1C1(C(=O)NC)COC1` are -3.8%, -6.73%, -1.56%, -11.6% and -6.21%.
For the compound `CN1CCN(c2ccc(-c3nccc4c(=O)cc(N(C)C5CCOCC5)oc34)cn2)CC1`, the activity change, negative = inhibition in assay [1] was -1.61%; in assay [2], -2.08%; in assay [3], -4.28%; in assay [4], -1.42%; in assay [5] it was -0.157%.
In the same order, the values of `Cc1ccc(CN2C(=O)c3cc4occc4n3CC2(C)C(=O)NC2CCCCC2)cc1` (stereo not given) are -7.52%, 0.338%, -0.685%, -2.08% and -4.28%.
In the same order, the values of `COc1ccc(C2Oc3c(OC)cc(CCCO)cc3C2COC2OC(CO)C(O)C(O)C2O)cc1OC` (stereo not given) are 2.06%, 6.45%, 10.1%, -7.43% and 5.23%.
